# About 4,000 (4.3%) of roughly 94,000 compounds were called active. This list was built around the results that the source calls inconclusive (neither active nor inactive); the mix of calls is not that of the screen. Calls come from the whole dose curve; as a rule, active = well fitted inhibition curve with a large enough effect; inconclusive = small, poorly fitted or top-dose-only effect; inactive = no such curve, though single readings can be large or run the other way. Potencies beside an inconclusive call are fits to weak or partial responses and may not hold up.
# Assay: Cytotoxic Profiling in NIH 3T3 Cell Line of Diverse Libraries Using Quantitative High-Throughput Screening; note: nearly all actives have a fitted effect of over 55% in size
# Details: NIH 3T3 viability, CellTiter-Glo ATP luminescence, 48-72 h; activity change, negative = cytotoxicity: at 96.7 µM (top of the series); series mostly up to 96.7 µM
# In short: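 Viability of NIH 3T3 cells after 48 or 72 hr compound treatment at 37 °C was assessed by CellTiter-Glo, with luminescence imaged following a 10 min room-temperature step.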
# % is set by controls: 0 for no effect and ±100 for the full control effect; potency is the fitted concentration of half-maximal effect; tags give direction and shape of the fitted curve.
Compound,outcome,Potency,"activity change, negative = cytotoxicity"
C#CCNC(=O)[C@H]1O[C@H](CCN2CCN(c3ccccc3)CC2)CC[C@@H]1O,inactive [at 174 µM],–,–
CCOc1cccc(-c2nc(C(=O)Nc3ccc(F)cc3)cs2)c1,–,"inconclusive: 50.1 µM [inhibitor, partial curve, poor fit]",–
CCN(Cc1ccncc1)C(=O)c1c(OCC2CC2)cc(=O)n2c1CCCCC2,–,–,inactive: -13.8%
O=C1Cc2c(-c3ccc4c(c3)OCO4)n[nH]c2CN1CC1CCOCC1,–,active: 10 µM,–
Cc1noc(C2CC3(CCN(C(=O)CCc4ccccc4)CC3)CN2C)n1 (stereo not drawn),–,–,inactive: -29.1%
CC(c1cccc(CN2CCC(CO)(CN3CCCC3)CC2)c1)N(C)C (stereo not drawn),–,"inconclusive: 50.1 µM [inhibitor, partial curve, poor fit]",–
CSc1ccc2cc(CN(C)CCO)c(-c3ccc(Cl)cc3)nc2c1,–,"inconclusive: 89.1 µM [inhibitor, single point]",–
CC1(c2ccccc2)N(Cc2ccccc2F)C(=O)OC12CCN(C(=O)c1cccc(C#N)c1)CC2 (stereo not drawn),–,active: 7.08 µM,–
O=C(c1ccc(F)c(Cl)c1)N1CCC2(CC1)CN(c1ccccc1)C2=O,–,active: 39.8 µM,–
CC(C)N1C[C@@H](COc2ccccc2)[C@H](c2ccccc2)[S+]1(=O)[O-],–,"inconclusive: 70.8 µM [inhibitor, single point]",–
COc1cc(-c2ccccc2C#N)cc(OC)c1OC,–,"inconclusive: 50.1 µM [inhibitor, partial curve, poor fit]",–
O=C1COc2ccc(-c3cncnc3)nc2CN1Cc1ccc(F)cc1,–,"inconclusive: 89.1 µM [inhibitor, partial curve, poor fit]",–
Cn1ccc(C(=O)N2CC(CNC(=O)Cc3ccccc3)C3(C2)CN(c2ccccc2)C3)n1 (stereo not drawn),–,"inconclusive: 35.5 µM [inhibitor, single point]",–
COc1ccccc1-c1cccc(C(=O)N2CCC[C@H]2C(=O)NCc2ccccn2)c1,–,–,inactive: -10.5%
Cc1ccc(C(=O)N2CCC[C@H]2c2nc(-c3ccccc3)no2)cc1C,–,"inconclusive: 50.1 µM [inhibitor, partial curve, poor fit]",–
O=C(COc1ccccc1)N1CCC2(CC1)CN(Cc1ccccc1)CC2CO (stereo not drawn),–,"inconclusive: 56.2 µM [inhibitor, partial curve, poor fit]",–
O=C(CNC(=O)c1ccc(-c2cccc(C(F)(F)F)c2)cc1)NCc1ccccc1,–,"inconclusive: 5.62 µM [inhibitor, full curve, poor fit]",–
COCCN(Cc1nccs1)C(=O)c1cnc(-c2ccccn2)[nH]c1=O,–,"inconclusive: 17.8 µM [inhibitor, full curve, poor fit]",–

# Source: PubChem BioAssay AID1345082 (National Center for Advancing Translational Sciences (NCATS), 2018)
